Reference: PubChem BioAssay AID1768 (National Center for Advancing Translational Sciences (NCATS), 2009)
Screen size: about 270,000 compounds; about 620 (0.23%) were called active. Inconclusive means that the source gave no clear call. Such entries were picked first, then a sample of the others. Calls follow the shape of the dose curve; as a rule, active = well fitted inhibition curve with a large enough effect in the polarisation, with a control signal flat (not every such curve was filed as active); inconclusive = small, poorly fitted or top-dose-only effect, or effect the other way, or a change in a side signal; inactive = no such curve, though single readings can be large or run the other way; the % refers to the polarisation. Potencies beside an inconclusive call are fits to weak or partial responses and may not hold up. “Side channel” marks fits to a control or component signal instead of the main read-out.

The compounds below were run against Menin (Homo sapiens) (UniProt O00255) (assay: qHTS Assay for Inhibitors Targeting the Menin-MLL Interaction in MLL Related Leukemias: Competition With Texas Red Labeled MLL-derived Mutant Peptide). Conditions: fluorescence polarization; FP activity change, negative = inhibition: at 61.6 µM (top of the series).
Chain of UniProt O00255 (O00255 whole entry, looked up): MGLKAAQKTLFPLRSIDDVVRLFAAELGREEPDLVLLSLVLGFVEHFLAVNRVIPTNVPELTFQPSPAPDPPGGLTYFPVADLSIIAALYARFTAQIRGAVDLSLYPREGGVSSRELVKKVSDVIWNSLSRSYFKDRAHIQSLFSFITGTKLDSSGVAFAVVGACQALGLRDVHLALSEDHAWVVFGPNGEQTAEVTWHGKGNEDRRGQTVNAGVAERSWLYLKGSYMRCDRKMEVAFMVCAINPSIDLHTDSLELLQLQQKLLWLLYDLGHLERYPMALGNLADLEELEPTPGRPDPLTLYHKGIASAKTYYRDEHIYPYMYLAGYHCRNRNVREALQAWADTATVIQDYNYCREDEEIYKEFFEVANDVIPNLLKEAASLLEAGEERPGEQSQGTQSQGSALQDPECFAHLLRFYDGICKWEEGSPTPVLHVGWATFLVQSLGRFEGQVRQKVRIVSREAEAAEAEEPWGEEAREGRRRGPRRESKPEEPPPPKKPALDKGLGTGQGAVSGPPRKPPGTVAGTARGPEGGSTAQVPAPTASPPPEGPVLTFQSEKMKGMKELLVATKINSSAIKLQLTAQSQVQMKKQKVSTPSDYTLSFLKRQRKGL

For FP activity change, negative = inhibition in this document: % of control where 0% means no effect.
Potency is read from the fitted curve at half-maximal effect; tags tell the direction and shape of the fitted curve or compound fluorescence and quenching.

SMILES	Potency	FP activity change, negative = inhibition
CCS(=O)(=O)c1ncc(Cl)c(C(=O)Nc2ccccc2OC)n1	inconclusive: 28.2 µM [inhibitor, single point]	
CCOc1ccccc1N(CC(=O)NCc1ccccc1)C(=O)CCC(=O)Nc1cc(C)ccn1	inconclusive: 7.94 µM [fluorescent, side channel, full curve]	
N#Cc1cc2c(nc1SCc1nc3ccccc3[nH]1)CCC2	inconclusive: 28.2 µM [quencher, side channel, single point]	
COc1ccc(/C=C/C(=O)OCC(=O)Nc2ccc(Cl)cn2)cc1	inconclusive: 28.2 µM [quencher, side channel, single point]	
Nc1ccc(Oc2ccc([N+](=O)[O-])cc2[N+](=O)[O-])cc1	inconclusive: 25.1 µM [quencher, side channel, single point]	
O=C(Nc1cccc(Cl)c1)Nc1ccc(Cl)cn1	inconclusive: 39.8 µM [inhibitor, single point]	
O=[N+]([O-])c1ccc(Nc2ccccc2)c2nonc12	inconclusive: 35.5 µM [quencher, side channel, single point]	
COc1ccc(C(OCC2CO2)c2ccc(OC)cc2)cc1 (stereo not given)		inactive: -10.6%
O=[N+]([O-])c1ccc2nc(-c3ccc(OC(F)F)cc3)cn2c1	inconclusive: 25.1 µM [quencher, side channel, single point]	
CC1=CCC2C(=O)N(c3cccc(C(=O)Nc4ccc(Cl)cc4)c3)C(=O)C2C1 (stereo not given)	inconclusive: 14.1 µM [quencher, side channel, partial curve]	
COC(=O)c1ccccc1NC(=O)c1sc(=S)n(C)c1N	inconclusive: 11.2 µM [quencher, side channel, partial curve]	
COc1ccc(-c2nn(-c3ccccc3)cc2/C=C2/SC(=S)N(CCC(=O)O)C2=O)cc1	inconclusive: 1.12 µM [quencher, side channel, full curve, poor fit]	
COc1ccc(-n2cc(-c3ccccc3)c3c(NCCCN4CCOCC4)ncnc32)cc1	inconclusive: 3.98 µM [fluorescent, side channel, partial curve]	
O=C(O)c1cc(Br)ccc1NS(=O)(=O)c1cccc2nsnc12	inconclusive: 15.8 µM [quencher, side channel, single point]	
CCOC(=O)c1ccc(NC(=O)CC2C(=O)N(c3ccc(F)cc3)C(=O)N2CCC(C)C)cc1 (stereo not given)	inconclusive: 20 µM [quencher, side channel, partial curve]	
